Assay results taken from the supplement of paper PMC8728848.
This is one part of the list.

What was measured:
Experiment in all cases: glycan array binding signal (z-score within array); higher = stronger binding
Details in all cases: glycan notation: IUPAC condensed, linker removed
Fuc(a1-2)Gal = target: Fuc(a1-2)Gal
Method in brief: (§1)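 Glycan array data came from 3228 arrays in the Consortium for Functional Glycomics database, and only arrays with an available protein sequence were kept. Glycan names were put into IUPAC-condensed notation, and columns mapping to the same glycan were averaged. The binding signal is a within-array Z-score, averaged across arrays of one protein sequence run at different concentrations or buffers and across linkers. A negative Z-score can be read as non-binding.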

Fuc(a1-2)Gal(b1-3)GalNAc = target: Fuc(a1-2)Gal(b1-3)GalNAc
Method in brief: as §1

[1] = target: Fuc(a1-2)Gal(b1-3)GalNAc(a1-3)[Fuc(a1-2)]Gal(b1-4)Glc
Method in brief: as §1

[2] = target: Fuc(a1-2)Gal(b1-3)GalNAc(a1-3)[Fuc(a1-2)]Gal(b1-4)GlcNAc
Method in brief: as §1

[3] = target: Fuc(a1-2)Gal(b1-3)GalNAc(b1-3)Gal
Method in brief: as §1

[4] = target: Fuc(a1-2)Gal(b1-3)GalNAc(b1-3)Gal(a1-4)Gal(b1-4)Glc
Method in brief: as §1

[5] = target: Fuc(a1-2)Gal(b1-3)GalNAc(b1-4)[Neu5Ac(a2-3)]Gal(b1-4)Glc
Method in brief: as §1

Fuc(a1-2)Gal(b1-3)GlcNAc = target: Fuc(a1-2)Gal(b1-3)GlcNAc
Method in brief: as §1

[6] = target: Fuc(a1-2)Gal(b1-3)GlcNAc(b1-2)Man(a1-3)[Fuc(a1-2)Gal(b1-3)GlcNAc(b1-2)Man(a1-6)]Man(b1-4)GlcNAc(b1-4)GlcNAc
Method in brief: as §1

[7] = target: Fuc(a1-2)Gal(b1-3)GlcNAc(b1-2)Man(a1-3)[Fuc(a1-2)Gal(b1-3)GlcNAc(b1-2)Man(a1-6)]Man(b1-4)GlcNAc(b1-4)[Fuc(a1-6)]GlcNAc
Method in brief: as §1

[8] = target: Fuc(a1-2)Gal(b1-3)GlcNAc(b1-3)Gal(b1-4)Glc
Method in brief: as §1

[9] = target: Fuc(a1-2)Gal(b1-3)GlcNAc(b1-3)GalNAc
Method in brief: as §1

[10] = target: Fuc(a1-2)Gal(b1-3)GlcNAc(b1-3)[Fuc(a1-2)Gal(b1-3)GlcNAc(b1-6)]GalNAc
Method in brief: as §1

[11] = target: Fuc(a1-2)Gal(b1-3)GlcNAc(b1-3)[Gal(b1-4)GlcNAc(b1-6)]Gal(b1-4)Glc
Method in brief: as §1

[12] = target: Fuc(a1-2)Gal(b1-3)GlcNAc(b1-3)[Neu5Ac(a2-6)Gal(b1-4)GlcNAc(b1-6)]Gal(b1-4)Glc
Method in brief: as §1

[13] = target: Fuc(a1-2)Gal(b1-3)GlcNAc6S
Method in brief: as §1

[14] = target: Fuc(a1-2)Gal(b1-3)[Fuc(a1-4)]GlcNAc
Method in brief: as §1

[15] = target: Fuc(a1-2)Gal(b1-3)[Fuc(a1-4)]GlcNAc(b1-2)Man(a1-3)[Fuc(a1-2)Gal(b1-3)[Fuc(a1-4)]GlcNAc(b1-2)Man(a1-3)]Man(b1-4)GlcNAc(b1-4)GlcNAc
Method in brief: as §1

[16] = target: Fuc(a1-2)Gal(b1-3)[Fuc(a1-4)]GlcNAc(b1-2)Man(a1-3)[Fuc(a1-2)Gal(b1-3)[Fuc(a1-4)]GlcNAc(b1-2)Man(a1-6)]Man(b1-4)GlcNAc(b1-4)[Fuc(a1-6)]GlcNAc(b1-4)[Fuc(a1-6)]GlcNAc
Method in brief: as §1

[17] = target: Fuc(a1-2)Gal(b1-3)[Fuc(a1-4)]GlcNAc(b1-3)[Fuc(a1-3)[Gal(b1-4)]GlcNAc(b1-6)]Gal(b1-4)Glc
Method in brief: as §1

[18] = target: Fuc(a1-2)Gal(b1-3)[Fuc(a1-4)]GlcNAc(b1-3)[Gal(b1-4)GlcNAc(b1-6)]Gal(b1-4)Glc
Method in brief: as §1

[19] = target: Fuc(a1-2)Gal(b1-4)Fuc(a1-3)]GlcNAc(b1-2)Man(a1-3)[Fuc(a1-2)Gal(b1-4)[Fuc(a1-3)]GlcNAc(b1-2)Man(a1-6)]Man(b1-4)GlcNAc(b1-4)GlcNAc
Method in brief: as §1

Fuc(a1-2)Gal(b1-4)Glc = target: Fuc(a1-2)Gal(b1-4)Glc
Method in brief: as §1

Fuc(a1-2)Gal(b1-4)Glc6S = target: Fuc(a1-2)Gal(b1-4)Glc6S
Method in brief: as §1

Fuc(a1-2)Gal(b1-4)GlcNAc = target: Fuc(a1-2)Gal(b1-4)GlcNAc
Method in brief: as §1

[20] = target: Fuc(a1-2)Gal(b1-4)GlcNAc(b1-2)Man
Method in brief: as §1

[21] = target: Fuc(a1-2)Gal(b1-4)GlcNAc(b1-2)Man(a1-3)[Fuc(a1-2)Gal(b1-4)GlcNAc(b1-2)Man(a1-6)]Man(b1-4)GlcNAc(b1-4)GlcNAc
Method in brief: as §1

[22] = target: Fuc(a1-2)Gal(b1-4)GlcNAc(b1-2)Man(a1-3)[Fuc(a1-2)Gal(b1-4)GlcNAc(b1-2)Man(a1-6)]Man(b1-4)GlcNAc(b1-4)[Fuc(a1-6)]GlcNAc
Method in brief: as §1

[23] = target: Fuc(a1-2)Gal(b1-4)GlcNAc(b1-2)[Fuc(a1-2)Gal(b1-4)GlcNAc(b1-4)]Man(a1-3)[Fuc(a1-2)Gal(b1-4)GlcNAc(b1-2)Man(a1-6)]Man(b1-4)GlcNAc(b1-4)GlcNAc
Method in brief: as §1

[24] = target: Fuc(a1-2)Gal(b1-4)GlcNAc(b1-3)Gal(b1-4)GlcNAc
Method in brief: as §1

[25] = target: Fuc(a1-2)Gal(b1-4)GlcNAc(b1-3)Gal(b1-4)GlcNAc(b1-2)Man(a1-3)[Fuc(a1-2)Gal(b1-4)GlcNAc(b1-3)Gal(b1-4)GlcNAc(b1-2)Man(a1-6)]Man(b1-4)GlcNAc(b1-4)GlcNAc
Method in brief: as §1

[26] = target: Fuc(a1-2)Gal(b1-4)GlcNAc(b1-3)Gal(b1-4)GlcNAc(b1-3)Gal(b1-4)GlcNAc
Method in brief: as §1

[27] = target: Fuc(a1-2)Gal(b1-4)GlcNAc(b1-3)GalNAc
Method in brief: as §1

[28] = target: Fuc(a1-2)Gal(b1-4)GlcNAc(b1-3)[Fuc(a1-2)Gal(b1-4)GlcNAc(b1-6)]GalNAc
Method in brief: as §1

[29] = target: Fuc(a1-2)Gal(b1-4)GlcNAc(b1-3)[Fuc(a1-3)[Gal(b1-4)]GlcNAc(b1-6)]Gal(b1-4)Glc
Method in brief: as §1

[30] = target: Fuc(a1-2)Gal(b1-4)GlcNAc(b1-6)GalNAc
Method in brief: as §1

[31] = target: Fuc(a1-2)Gal(b1-4)GlcNAc6S
Method in brief: as §1

[32] = target: Fuc(a1-2)Gal(b1-4)[Fuc(a1-3)]GlcNAc
Method in brief: as §1

[33] = target: Fuc(a1-2)Gal(b1-4)[Fuc(a1-3)]GlcNAc(b1-2)Man(a1-3)[Fuc(a1-2)Gal(b1-4)[Fuc(a1-3)]GlcNAc(b1-2)Man(a1-6)]Man(b1-4)GlcNAc(b1-4)[Fuc(a1-6)]GlcNAc
Method in brief: as §1

[34] = target: Fuc(a1-2)Gal(b1-4)[Fuc(a1-3)]GlcNAc(b1-2)[Fuc(a1-2)Gal(b1-4)[Fuc(a1-3)]GlcNAc(b1-4)]Man(a1-3)[Fuc(a1-2)Gal(b1-4)[Fuc(a1-3)]GlcNAc(b1-2)Man(a1-6)]Man(b1-4)GlcNAc(b1-4)GlcNAc
Method in brief: as §1

[35] = target: Fuc(a1-2)Gal(b1-4)[Fuc(a1-3)]GlcNAc(b1-3)Gal(b1-4)[Fuc(a1-3)]GlcNAc
Method in brief: as §1

[36] = target: Fuc(a1-2)Gal(b1-4)[Fuc(a1-3)]GlcNAc(b1-3)Gal(b1-4)[Fuc(a1-3)]GlcNAc(b1-3)Gal(b1-4)[Fuc(a1-3)]GlcNAc
Method in brief: as §1

[37] = target: Fuc(a1-2)Gal(b1-4)[Fuc(a1-3)]GlcNAc(b1-3)GalNAc
Method in brief: as §1

[38] = target: Fuc(a1-2)Gal(b1-4)[Fuc(a1-3)]GlcNAc(b1-3)[Neu5Ac(a2-6)Gal(b1-4)GlcNAc(b1-6)]Gal(b1-4)Glc
Method in brief: as §1

[39] = target: Fuc(a1-2)Gal3S(b1-4)GlcNAc
Method in brief: as §1

B1: CFEM-PPl (Pichia pastoris), F2QPV1 (protein)
chain: AVATPPACLLACAAEVVKESSDCDALNNIQCICENEGSAIHACLESTCPDGLSSTALQSFEDVCESVGTEANLDE
Fuc(a1-2)Gal
  glycan array binding signal (z-score): -0.148
Fuc(a1-2)Gal(b1-3)GalNAc
  glycan array binding signal (z-score): -0.217
[1]
  glycan array binding signal (z-score): 0.025
[2]
  glycan array binding signal (z-score): -0.119
[3]
  glycan array binding signal (z-score): 0.145
[4]
  glycan array binding signal (z-score): -0.182
[5]
  glycan array binding signal (z-score): 0.099
Fuc(a1-2)Gal(b1-3)GlcNAc
  glycan array binding signal (z-score): -0.22
[6]
  glycan array binding signal (z-score): -0.335
[7]
  glycan array binding signal (z-score): -0.278
[8]
  glycan array binding signal (z-score): -0.261
[9]
  glycan array binding signal (z-score): -0.302
[10]
  glycan array binding signal (z-score): -0.036
[11]
  glycan array binding signal (z-score): -0.115
[12]
  glycan array binding signal (z-score): -0.199
[13]
  glycan array binding signal (z-score): 0.053
[14]
  glycan array binding signal (z-score): -0.299
[15]
  glycan array binding signal (z-score): 0.009
[16]
  glycan array binding signal (z-score): -0.041
[17]
  glycan array binding signal (z-score): -0.205
[18]
  glycan array binding signal (z-score): -0.202
[19]
  glycan array binding signal (z-score): 0.14
Fuc(a1-2)Gal(b1-4)Glc
  glycan array binding signal (z-score): -0.216
Fuc(a1-2)Gal(b1-4)Glc6S
  glycan array binding signal (z-score): -0.328
Fuc(a1-2)Gal(b1-4)GlcNAc
  glycan array binding signal (z-score): -0.297
[20]
  glycan array binding signal (z-score): -0.349
[21]
  glycan array binding signal (z-score): -0.342
[22]
  glycan array binding signal (z-score): -0.237
[23]
  glycan array binding signal (z-score): -0.101
[24]
  glycan array binding signal (z-score): -0.339
[25]
  glycan array binding signal (z-score): -0.136
[26]
  glycan array binding signal (z-score): -0.302
[27]
  glycan array binding signal (z-score): 0.514
[28]
  glycan array binding signal (z-score): -0.132
[29]
  glycan array binding signal (z-score): -0.319
[30]
  glycan array binding signal (z-score): -0.237
[31]
  glycan array binding signal (z-score): -0.251
[32]
  glycan array binding signal (z-score): -0.355
[33]
  glycan array binding signal (z-score): -0.089
[34]
  glycan array binding signal (z-score): 0.038
[35]
  glycan array binding signal (z-score): -0.222
[36]
  glycan array binding signal (z-score): -0.342
[37]
  glycan array binding signal (z-score): 0.643
[38]
  glycan array binding signal (z-score): -0.205
[39]
  glycan array binding signal (z-score): -0.03
